In all, about 81,000 sequences were measured (“one-hybrid fitness for binding NBS DNA”: median about -0.1, highest 2% from about 0.36 on). This is one part of the list.
B1: Caulobacter ParB omega fusion; a variant is named by its letters at X, in order, B8GW30 (parent)
chain: MESVVVGEPGMSEGRRGLGRGLSALLGEVDAAPAQAPGEQLGGSREAPIEILQRNPDQPRRTFREEDLEDLSNSIREKGVLQPILVRPSPDTAGEYQIVAGERAWRAAQRAGLKTVPIMVRELDDLAVLEIGIIENVQRADLNVLEEALSYKVLMEKFERTQENIAQTIGKSXSHVANXMRLLXLPDEVQSYLVSGELTAXHARAIAAAADPVALAKQIIEGGLSVRETEALARKAPNLSAGKSKGGRPPRVKDTDTQALESDLSSVLGLDVSIDHRGSTGTLTITYATLEQLDDLCNRLTRGI

Variants of: B1
Experiment: one-hybrid fitness for binding NBS DNA (the Noc-binding site; scaled: cognate 1, non-cognate 0); higher = stronger binding
Details: with NBS DNA site
Procedure, shortened: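 In E. coli USO, a HIS3 reporter with its site placed 19 bp from the promoter was used to select Caulobacter ParB variants randomised at four specificity codons. Growth lasted 48 hours at 37°C on histidine-free M9 containing 0.1 mM IPTG and 5 mM 3-AT. Fitness was taken as the log change in variant-to-wild-type read ratio from Illumina sequencing of pre- and post-selection plasmids, rescaled between the non-cognate and cognate sites.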

| Variant | one-hybrid fitness for binding NBS DNA |
| --- | --- |
| QEVC | ≤ 0.2 |
| SVLS | ≤ 0.2 |
| DTYA | ≤ 0.2 |
| GALY | ≤ 0.2 |
| YAEK | ≤ 0.2 |
| PDPE | ≤ 0.2 |
| RPWA | ≤ 0.2 |
| ENIK | ≤ 0.2 |
| HHEC | ≤ 0.2 |
| SMDF | ≤ 0.2 |
| ADLF | ≤ 0.2 |
| PLKW | ≤ 0.2 |
| LAEM | ≤ 0.2 |
| ESRP | ≤ 0.2 |
| TKAE | ≤ 0.2 |
| SNHD | ≤ 0.2 |
| LLNK | ≤ 0.2 |
| GLPE | ≤ 0.2 |
| ARGC | ≤ 0.2 |
| QMWG | ≤ 0.2 |
| GNLL | ≤ 0.2 |
| PQPE | ≤ 0.2 |
| CCTP | ≤ 0.2 |
| FRPH | ≤ 0.2 |

| Variant | one-hybrid fitness for binding NBS DNA |
| --- | --- |
| ENSR | ≤ 0.2 |
| QGVI | ≤ 0.2 |
| DGAK | ≤ 0.2 |
| YCPV | ≤ 0.2 |
| GWLG | ≤ 0.2 |
| CIYD | ≤ 0.2 |
| TAMY | ≤ 0.2 |
| AVKV | ≤ 0.2 |
| WAFC | ≤ 0.2 |
| CHTE | ≤ 0.2 |
| ANEM | ≤ 0.2 |
| RSKH | 0.357 |
| RPWT | ≤ 0.2 |
| WRDT | ≤ 0.2 |
| YTHT | ≤ 0.2 |
| GRQT | ≤ 0.2 |
| QQRT | 0.8 |
| QRTS | 0.685 |
| PLDA | ≤ 0.2 |
| AGQV | ≤ 0.2 |
| QHWF | ≤ 0.2 |
| PVGQ | ≤ 0.2 |
| NMDM | ≤ 0.2 |
| FTPH | ≤ 0.2 |

| Variant | one-hybrid fitness for binding NBS DNA |
| --- | --- |
| VLNW | ≤ 0.2 |
| MLQK | ≤ 0.2 |
| GTQC | ≤ 0.2 |
| RQNN | ≤ 0.2 |
| SPDE | ≤ 0.2 |
| HRYT | ≤ 0.2 |
| TVPA | ≤ 0.2 |
| NETV | ≤ 0.2 |
| LCPL | ≤ 0.2 |
| IMHE | ≤ 0.2 |
| ATMH | ≤ 0.2 |
| PRRI | ≤ 0.2 |
| SYYM | ≤ 0.2 |
| DNLY | ≤ 0.2 |
| YVLV | ≤ 0.2 |
| CHPG | ≤ 0.2 |
| HWPR | ≤ 0.2 |
| DDSM | ≤ 0.2 |
| YSHW | ≤ 0.2 |
| QTSK | 0.224 |
| NLEL | ≤ 0.2 |
| KGWF | ≤ 0.2 |
| PRNS | ≤ 0.2 |
| KKEP | ≤ 0.2 |

| Variant | one-hybrid fitness for binding NBS DNA |
| --- | --- |
| GWWE | ≤ 0.2 |
| NTLI | ≤ 0.2 |
| TAQE | ≤ 0.2 |
| PECW | ≤ 0.2 |
| TTTV | ≤ 0.2 |
| SFTM | ≤ 0.2 |
| HHAG | ≤ 0.2 |
| KAGG | ≤ 0.2 |
| FTNK | ≤ 0.2 |
| DYES | ≤ 0.2 |
| NGSK | ≤ 0.2 |
| NNWR | ≤ 0.2 |
| EVDN | ≤ 0.2 |
| TRVH | ≤ 0.2 |
| DYET | ≤ 0.2 |
| WFGY | ≤ 0.2 |
| CTSF | ≤ 0.2 |
| YTRI | ≤ 0.2 |
| YPLR | ≤ 0.2 |
| GVVG | ≤ 0.2 |
| RKYC | ≤ 0.2 |
| TKAL | ≤ 0.2 |
| EIVG | ≤ 0.2 |
| DRKI | ≤ 0.2 |

| Variant | one-hybrid fitness for binding NBS DNA |
| --- | --- |
| YMPP | ≤ 0.2 |
| KFLS | ≤ 0.2 |
| FFTW | ≤ 0.2 |
| SAKT | ≤ 0.2 |
| MYRR | ≤ 0.2 |
| APKF | ≤ 0.2 |
| YICS | ≤ 0.2 |
| PELY | ≤ 0.2 |
| KIAS | ≤ 0.2 |
| AALQ | ≤ 0.2 |
| NTMA | ≤ 0.2 |
| PFTC | ≤ 0.2 |
| QCCD | ≤ 0.2 |
| RIGP | ≤ 0.2 |
| VSHL | ≤ 0.2 |
| AINV | ≤ 0.2 |
| GHAI | ≤ 0.2 |
| HVGR | ≤ 0.2 |
| QENS | ≤ 0.2 |
| LVMG | ≤ 0.2 |
| TDCT | ≤ 0.2 |
| QMRY | 0.566 |
| RKDN | ≤ 0.2 |
| DERS | ≤ 0.2 |

| Variant | one-hybrid fitness for binding NBS DNA |
| --- | --- |
| GQVQ | ≤ 0.2 |
| YFGS | ≤ 0.2 |
| PPGY | ≤ 0.2 |
| GKLS | ≤ 0.2 |
| ICQS | ≤ 0.2 |
| HRQN | ≤ 0.2 |
| PPMT | ≤ 0.2 |
| VPDE | ≤ 0.2 |
| DNIG | ≤ 0.2 |
| KPRI | ≤ 0.2 |
| SWPL | ≤ 0.2 |
| NWKR | ≤ 0.2 |
| GLNM | ≤ 0.2 |
| GFPR | ≤ 0.2 |
| RNAH | ≤ 0.2 |
| QIRH | 0.44 |
| RAHV | ≤ 0.2 |
| ICRR | 0.291 |
| VKLQ | ≤ 0.2 |
| PMVL | ≤ 0.2 |
| QHLE | ≤ 0.2 |
| RIPY | ≤ 0.2 |
| DYGS | ≤ 0.2 |
| IRIC | ≤ 0.2 |

| Variant | one-hybrid fitness for binding NBS DNA |
| --- | --- |
| RATL | ≤ 0.2 |
| RNRH | ≤ 0.2 |
| DYGR | ≤ 0.2 |
| SVMW | ≤ 0.2 |
| LLAE | ≤ 0.2 |
| WPHN | ≤ 0.2 |
| PAWE | ≤ 0.2 |
| RLMR | 0.341 |
| PEMG | ≤ 0.2 |
| CMKL | ≤ 0.2 |
| RVVG | ≤ 0.2 |
| TEAA | ≤ 0.2 |
| CATF | ≤ 0.2 |
| LKHY | ≤ 0.2 |
| KRTV | ≤ 0.2 |
| VEEG | ≤ 0.2 |
| QYIR | 0.346 |
| HATP | ≤ 0.2 |
| ERWC | ≤ 0.2 |
| WMLR | ≤ 0.2 |
| AGLY | ≤ 0.2 |
| MNVT | ≤ 0.2 |
| LWRK | ≤ 0.2 |
| LIRG | ≤ 0.2 |

| Variant | one-hybrid fitness for binding NBS DNA |
| --- | --- |
| YKWS | ≤ 0.2 |
| YSPA | ≤ 0.2 |
| RSYK | ≤ 0.2 |
| FAMC | ≤ 0.2 |
| TGDN | ≤ 0.2 |
| GYEV | ≤ 0.2 |
| EGIR | ≤ 0.2 |
| QQMR | 0.584 |
| RFRT | 0.456 |
| TRMQ | ≤ 0.2 |
| VSWR | ≤ 0.2 |
| CNER | ≤ 0.2 |
| NRST | ≤ 0.2 |
| VRAH | ≤ 0.2 |
| DAYD | ≤ 0.2 |
| VVNG | ≤ 0.2 |
| NHKT | ≤ 0.2 |
| YTPI | ≤ 0.2 |
| AAER | ≤ 0.2 |
| MIIR | ≤ 0.2 |
| MIYR | ≤ 0.2 |
| SAIK | ≤ 0.2 |
| HLVS | ≤ 0.2 |
| KQSR | ≤ 0.2 |

| Variant | one-hybrid fitness for binding NBS DNA |
| --- | --- |
| CLGL | ≤ 0.2 |
| RRTW | ≤ 0.2 |
| SARS | ≤ 0.2 |
| SFTE | ≤ 0.2 |
| CSYC | ≤ 0.2 |
| PLNK | ≤ 0.2 |
| TVGS | ≤ 0.2 |
| DINC | ≤ 0.2 |
| CEER | ≤ 0.2 |
| LLDC | ≤ 0.2 |
| GLQC | ≤ 0.2 |
| PPNP | ≤ 0.2 |
| WRTT | ≤ 0.2 |
| MWTG | ≤ 0.2 |
| GETS | ≤ 0.2 |
| RAMR | 0.341 |
| ERNS | ≤ 0.2 |
| PCGC | ≤ 0.2 |
| VYRS | ≤ 0.2 |
| RTLN | ≤ 0.2 |
| YNAF | ≤ 0.2 |
| CQKR | 0.212 |
| LPEI | ≤ 0.2 |
| RERI | ≤ 0.2 |

| Variant | one-hybrid fitness for binding NBS DNA |
| --- | --- |
| HYTL | ≤ 0.2 |
| TNSW | ≤ 0.2 |
| PRHV | ≤ 0.2 |
| EIHM | ≤ 0.2 |
| RLAM | ≤ 0.2 |
| HRDW | ≤ 0.2 |
| GMLR | ≤ 0.2 |
| CGHT | ≤ 0.2 |
| HDNK | ≤ 0.2 |
| RRSL | ≤ 0.2 |
| QVLF | ≤ 0.2 |
| LCIW | ≤ 0.2 |
| EEAG | ≤ 0.2 |
| PSPK | ≤ 0.2 |
| RNFC | ≤ 0.2 |
| ESKV | ≤ 0.2 |
| QLTK | ≤ 0.2 |
| RENR | ≤ 0.2 |
| CEST | ≤ 0.2 |
| LTLC | ≤ 0.2 |
| EYSC | ≤ 0.2 |
| YADT | ≤ 0.2 |
| WSGV | ≤ 0.2 |
| YLSK | ≤ 0.2 |

| Variant | one-hybrid fitness for binding NBS DNA |
| --- | --- |
| TKTL | ≤ 0.2 |
| RGAS | ≤ 0.2 |
| RNQH | ≤ 0.2 |
| SQMG | ≤ 0.2 |
| LARG | ≤ 0.2 |
| TYNN | ≤ 0.2 |
| NNSM | ≤ 0.2 |
| TFPE | ≤ 0.2 |
| WHHR | ≤ 0.2 |
| IVYS | ≤ 0.2 |
| AIGT | ≤ 0.2 |
| VCPS | ≤ 0.2 |
| DPQI | ≤ 0.2 |
| RWTI | ≤ 0.2 |
| QICI | ≤ 0.2 |
| KLND | ≤ 0.2 |
| LPTR | ≤ 0.2 |
| TGKR | ≤ 0.2 |
| PFAA | ≤ 0.2 |
| SEMK | ≤ 0.2 |
| CLTK | ≤ 0.2 |
| VYYC | ≤ 0.2 |
| GTMM | ≤ 0.2 |
| GNLS | ≤ 0.2 |

| Variant | one-hybrid fitness for binding NBS DNA |
| --- | --- |
| QEWT | ≤ 0.2 |
| MGMT | ≤ 0.2 |
| TTMC | ≤ 0.2 |
| WVAC | ≤ 0.2 |
| QAKY | 0.531 |
| QNER | 0.212 |
| THAR | ≤ 0.2 |
| GQWG | ≤ 0.2 |
| HRRG | ≤ 0.2 |
| IGRW | ≤ 0.2 |
| GPLI | ≤ 0.2 |
| CPAM | ≤ 0.2 |
| QAYT | 0.322 |
| SGSV | ≤ 0.2 |
| TWDE | ≤ 0.2 |
| IVNW | ≤ 0.2 |
| DIPP | ≤ 0.2 |
| QFFG | 0.554 |
| NAPQ | ≤ 0.2 |
| IMKR | 0.283 |
| HLNN | ≤ 0.2 |
| TQIG | ≤ 0.2 |
| AGKF | ≤ 0.2 |
| FWDR | ≤ 0.2 |

| Variant | one-hybrid fitness for binding NBS DNA |
| --- | --- |
| THNG | ≤ 0.2 |
| NDGD | ≤ 0.2 |
| DAGI | ≤ 0.2 |
| NVLR | ≤ 0.2 |
| QPKF | ≤ 0.2 |
| RIGS | 0.369 |
| PMSS | ≤ 0.2 |
| ASAV | ≤ 0.2 |
| KNFS | ≤ 0.2 |
| PMQS | ≤ 0.2 |
| RSGS | 0.419 |
| RFAY | ≤ 0.2 |
| SAWM | ≤ 0.2 |
| NKAW | ≤ 0.2 |
| SKKR | 0.213 |
| TREE | ≤ 0.2 |
| QLKP | ≤ 0.2 |
| TNSL | ≤ 0.2 |

Source: a collection of fitness landscapes (doi:10.1016/j.celrep.2020.107928)
